Reference: the supplement of paper PMC10369915
The list shows a part of the results. Rule as the data show it: active = 3.2 or more and inactive = the rest. The signal is at background level for most entries.

Legend:
Assay in all cases: enrichment score (SH2-bound / input frequency) (ratio); bacterial display of known human phosphotyrosine sites (pTyr-Var adds point mutants) read by sequencing; higher = stronger binding; tyrosines were phosphorylated by kinases first
Conditions in all cases: peptide library: Human pTyr
[1] = biological target: SHP2 C-SH2 domain E139D
[2] = biological target: SHP2 C-SH2 domain wild-type
[3] = biological target: SHP2 N-SH2 domain L43F
[4] = biological target: SHP2 N-SH2 domain T42A
[5] = biological target: SHP2 N-SH2 domain T52S
[6] = biological target: SHP2 N-SH2 domain wild-type

Measured: enrichment score
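Also: displayed peptides selected on beads carrying the immobilized SH2 domain, with library peptides lacking any tyrosine serving as negative controls.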

GLLMTPCYTANFVAP [RPS6KA3_HUMAN_580]
inactive: [1] 1.68 | [2] 1.47 | [3] 1.3 | [4] 1.45 | [5] 1.71 | [6] 1.58

SALLGDHYVQLPATA [RON_HUMAN_1353_YA]
inactive: [1] 0.561 | [2] 0.515 | [3] 0.581 | [4] 0.505 | [5] 0.705 | [6] 0.642

KGAMAATYSALNRNQ [RPS6KA3_HUMAN_707]
inactive: [1] 0.816 | [2] 0.697 | [3] 0.649 | [4] 0.678 | [5] 0.797 | [6] 0.822

DDVKEQIYKLAKKGL [RS13_HUMAN_38]
inactive: [1] 0.912 | [2] 1 | [3] 0.862 | [4] 0.927 | [5] 1.05 | [6] 0.935

AVQLPATYMNLGPST [RON_HUMAN_1360_YA]
inactive: [1] 1 | [2] 0.753 | [3] 1.21 | [4] 0.849 | [5] 1.51 | [6] 0.907

GLEPVGHYEEVELTE [RPS6KB2_HUMAN_45]
inactive: [1] 1.08 | [2] 0.888 | [3] 0.885 | [4] 1.14 | [5] 0.988 | [6] 1.02

MLRIVEPYIAWGAPN [RL7_HUMAN_139_YA]
inactive: [1] 1 | [2] 0.885 | [3] 0.924 | [4] 0.914 | [5] 0.866 | [6] 1.01

SKMQQNGYENPTAKF [A4_HUMAN_757_YA]
inactive: [1] 0.864 | [2] 0.796 | [3] 0.894 | [4] 0.972 | [5] 0.993 | [6] 1

SLEISQSYTTTQRES [ATM_HUMAN_370]
inactive: [1] 0.495 | [2] 0.558 | [3] 0.508 | [4] 0.444 | [5] 0.6 | [6] 0.661

KTVTDFCYLLDKSKQ [SCAI_HUMAN_64]
inactive: [1] 1.27 | [2] 1.25 | [3] 1.33 | [4] 1.17 | [5] 1.28 | [6] 1.42

YFVYLGAYDRFLPYI [S22A5_HUMAN_486]
inactive: [1] 1.89 | [2] 2.06 | [3] 1.83 | [4] 1.9 | [5] 1.9 | [6] 2.4

FGLARDIYKNDYYRK [ROS1_HUMAN_2110]
inactive: [1] 1.27 | [2] 1.48 | [3] 0.98 | [4] 2.04 | [5] 1.92 | [6] 1.32

FLVTLLIYRMKKKDE [SDC3_HUMAN_409]
inactive: [1] 0.217 | [2] 0.156 | [3] 0.582 | [4] 0.574 | [5] 0.585 | [6] 0.443

FNFFRKFYNKSEDED [RYR1_HUMAN_4864]
inactive: [1] 1.09 | [2] 1.05 | [3] 1.03 | [4] 1.14 | [5] 0.858 | [6] 1.17

DVYDDGKYVYVVTEL [RPS6KA3_HUMAN_488]
inactive: [1] 1.43 | [2] 1.3 | [3] 1.07 | [4] 1.18 | [5] 1.22 | [6] 1.28

APIPSVPYAPFAAIL [RPGF1_HUMAN_504]
inactive: [1] 1.33 | [2] 1.12 | [3] 1.03 | [4] 1.04 | [5] 1.09 | [6] 1.03

GMGKAENYELYSVEL [ATP4A_HUMAN_7]
inactive: [1] 0.685 | [2] 0.512 | [3] 0.58 | [4] 0.628 | [5] 0.636 | [6] 0.566

GSGGSGGYGGRSRYG [ROA2_HUMAN_347]
inactive: [1] 0.751 | [2] 0.699 | [3] 0.63 | [4] 0.583 | [5] 0.631 | [6] 0.722

YTPTSPKYSPTSPTY [RPB1_HUMAN_1909]
inactive: [1] 0.75 | [2] 0.704 | [3] 0.599 | [4] 0.593 | [5] 0.461 | [6] 0.889

KVERADGYEPPVQES [RS3A_HUMAN_256]
inactive: [1] 1.01 | [2] 0.915 | [3] 0.832 | [4] 1.08 | [5] 0.985 | [6] 1.01

SLSIEKGYRHWHADL [SARDH_HUMAN_777]
inactive: [1] 1.13 | [2] 0.897 | [3] 0.906 | [4] 0.984 | [5] 1.05 | [6] 1.31

FGLARDIYKNDAARK [ROS1_HUMAN_2110_YA]
inactive: [1] 0.932 | [2] 0.876 | [3] 0.867 | [4] 1.15 | [5] 1.1 | [6] 0.911

SPTEPKNYGSASTQA [SCAM3_HUMAN_83_YA]
inactive: [1] 0.788 | [2] 0.685 | [3] 0.632 | [4] 0.544 | [5] 0.714 | [6] 0.602

GSPYGGGYGSGGGSG [ROA3_HUMAN_364]
inactive: [1] 0.633 | [2] 0.462 | [3] 0.411 | [4] 0.49 | [5] 0.545 | [6] 0.48

VEPKTETYVEANMGL [RXRA_HUMAN_249]
inactive: [1] 0.717 | [2] 0.647 | [3] 0.636 | [4] 0.641 | [5] 0.678 | [6] 0.974

KSKFDNLYGCRESLI [SAHH_HUMAN_193]
inactive: [1] 1.65 | [2] 1.3 | [3] 1.09 | [4] 1.36 | [5] 1.25 | [6] 1.2

GSPAGGGYGSGGGSG [ROA3_HUMAN_364_YA]
inactive: [1] 0.525 | [2] 0.387 | [3] 0.522 | [4] 0.384 | [5] 0.467 | [6] 0.503

VLGDIIFYDLKDPFD [S3TC1_HUMAN_1248]
inactive: [1] 1.14 | [2] 1.19 | [3] 1.4 | [4] 0.767 | [5] 1.02 | [6] 1.06

EIYSADYYRVQSKSL [ROR1_HUMAN_646]
inactive: [1] 0.927 | [2] 0.728 | [3] 0.695 | [4] 0.521 | [5] 0.715 | [6] 0.691

DIYKNDYYRKRGEGL [ROS1_HUMAN_2115]
inactive: [1] 1.01 | [2] 0.765 | [3] 0.823 | [4] 0.924 | [5] 0.899 | [6] 0.984

GRSSGSPYGGGAGSG [ROA3_HUMAN_360_YA]
inactive: [1] 0.563 | [2] 0.482 | [3] 0.56 | [4] 0.488 | [5] 0.445 | [6] 0.524

MELALGQYHRNGCIS [SC6A4_HUMAN_142]
inactive: [1] 1.34 | [2] 1.2 | [3] 1.23 | [4] 2.21 | [5] 1.38 | [6] 1.3

IITLKDVYDDGKAVA [RPS6KA3_HUMAN_483_YA]
inactive: [1] 0.795 | [2] 0.692 | [3] 0.886 | [4] 0.757 | [5] 0.956 | [6] 0.771

ATPTSPKYSPTSPTA [RPB1_HUMAN_1909_YA]
inactive: [1] 0.737 | [2] 0.841 | [3] 0.616 | [4] 0.871 | [5] 1.23 | [6] 0.575

EIEILLRYGQHPNII [RPS6KA3_HUMAN_470]
inactive: [1] 1.79 | [2] 1.26 | [3] 1.41 | [4] 1.53 | [5] 1.36 | [6] 1.46

AFVALGAYDRFLPAI [S22A5_HUMAN_486_YA]
inactive: [1] 1.32 | [2] 1.13 | [3] 1.03 | [4] 1.16 | [5] 1.01 | [6] 1.29
